# Test results: the supplement of paper PMC8728848
# The list shows a part of the results.
# B1: SP15308A-bot-339-19-339 (Bacteroides ovatus) (protein)
# chain: ACNNEWEDEQYEQYISFKSPIPAGGEGVTDIYVRYKEDGKVTYRLPIVVSGSTTNTLDREVHIAVDKDTLETLNIERFSIHRPGLWYTALEEDKYDFPKTVHISAGSSVEQLNIDFNLQGIDMLEKWVLPLTIVDDPSYNYKSHPRKNYAKALLRVIPFNNYSGSYTSSAMKVYTYINGKPDTNARTANKRTGYVINDNTVFFYAGLISEDLDKEVREKYKINVHFNEDGTLHMEQGDPTNKMKFELIGTPTYSKTSVMDATRPYLERRYVQIMFEYDFEDFSYGGNGVDVIPIKYKVEGSMTLQRNINTQIPDEDQQIEW
# Experiments:
# Experiment in all cases: glycan array binding signal (z-score within array); higher = stronger binding
# Details in all cases: glycan notation: IUPAC condensed, linker removed
# [1] = target: GlcNAc(b1-4)GlcNAc(b1-4)GlcNAc(b1-4)GlcNAc(b1-4)GlcNAc(b1-4)GlcNAc
# Method in brief: (§1)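 Columns mapping to the same glycan were averaged after glycan names were converted to IUPAC-condensed notation. The data come from 3228 arrays in the Consortium for Functional Glycomics database, limited to those with an available protein sequence. Binding is reported as a within-array Z-score averaged across arrays of one protein sequence and across linkers.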
# [2] = target: GlcNAc(b1-4)[GlcNAc(b1-6)]GalNAc
# Method in brief: as §1
# [3] = target: GlcNAc(b1-6)Gal(b1-4)GlcNAc
# Method in brief: as §1
# [4] = target: GlcNAc(b1-6)GalNAc
# Method in brief: as §1
# [5] = target: GlcNAc6S(b1-3)Gal(b1-4)GlcNAc
# Method in brief: as §1
# [6] = target: Kdn(a2-3)Gal(b1-3)GalNAc
# Method in brief: as §1
# [7] = target: Kdn(a2-3)Gal(b1-3)GlcNAc
# Method in brief: as §1
# [8] = target: Kdn(a2-3)Gal(b1-4)Glc
# Method in brief: as §1
# [9] = target: Kdn(a2-3)Gal(b1-4)GlcNAc
# Method in brief: as §1
# [10] = target: Kdn(a2-3)Gal(b1-4)[Fuc(a1-3)]GlcNAc
# Method in brief: as §1
# [11] = target: Kdn(a2-6)Gal(b1-4)GlcNAc
# Method in brief: as §1
# [12] = target: Man(a1-2)Man(a1-2)Man(a1-3)Man
# Method in brief: as §1
# [13] = target: Man(a1-2)Man(a1-2)Man(a1-6)[Man(a1-3)]Man
# Method in brief: as §1
# [14] = target: Man(a1-2)Man(a1-3)Man
# Method in brief: as §1
# [15] = target: Man(a1-2)Man(a1-3)[Man(a1-2)Man(a1-6)]Man
# Method in brief: as §1
# [16] = target: Man(a1-2)Man(a1-3)[Man(a1-2)Man(a1-6)]Man(a1-6)[Man(a1-2)Man(a1-2)Man(a1-3)]Man
# Method in brief: as §1
# [17] = target: Man(a1-2)Man(a1-3)[Man(a1-2)Man(a1-6)]Man(a1-6)[Man(a1-2)Man(a1-2)Man(a1-3)]Man(b1-4)GlcNAc(b1-4)GlcNAc
# Method in brief: as §1
# [18] = target: Man(a1-2)Man(a1-3)[Man(a1-6)]Man(a1-6)[Man(a1-2)Man(a1-3)]Man(b1-4)GlcNAc(b1-4)GlcNAc
# Method in brief: as §1
# [19] = target: Man(a1-2)Man(a1-6)[Man(a1-3)]Man(a1-6)[Man(a1-2)Man(a1-2)Man(a1-3)]Man
# Method in brief: as §1
# [20] = target: Man(a1-2)Man(a1-6)[Man(a1-3)]Man(a1-6)[Man(a1-2)Man(a1-2)Man(a1-3)]Man(b1-4)GlcNAc(b1-4)GlcNAc
# Method in brief: as §1
# [21] = target: Man(a1-3)[Man(a1-6)]Man
# Method in brief: as §1
# [22] = target: Man(a1-3)[Man(a1-6)]Man(a1-6)[Man(a1-2)Man(a1-3)]Man(b1-4)GlcNAc(b1-4)GlcNAc
# Method in brief: as §1
# [23] = target: Man(a1-3)[Man(a1-6)]Man(a1-6)[Man(a1-3)]Man
# Method in brief: as §1
# [24] = target: Man(a1-3)[Man(a1-6)]Man(a1-6)[Man(a1-3)]Man(b1-4)GlcNAc(b1-4)GlcNAc
# Method in brief: as §1
# [25] = target: Man(a1-3)[Man(a1-6)]Man(b1-4)GlcNAc(b1-4)GlcNAc
# Method in brief: as §1
# [26] = target: Man(a1-3)[Man(a1-6)]Man(b1-4)GlcNAc(b1-4)[Fuc(a1-6)]GlcNAc
# Method in brief: as §1
# [27] = target: Man(a1-6)Man
# Method in brief: as §1
# [28] = target: Man(b1-4)GlcNAc
# Method in brief: as §1
# [29] = target: MurNAc(b1-4)GlcNAc
# Method in brief: as §1
# [30] = target: Neu5Ac(a2-3)Gal
# Method in brief: as §1
# [31] = target: Neu5Ac(a2-3)Gal(b1-3)GalNAc
# Method in brief: as §1
# [32] = target: Neu5Ac(a2-3)Gal(b1-3)GalNAc(b1-3)Gal(a1-4)Gal(b1-4)Glc
# Method in brief: as §1
# [33] = target: Neu5Ac(a2-3)Gal(b1-3)GalNAc(b1-4)[Neu5Ac(a2-3)]Gal(b1-4)Glc
# Method in brief: as §1
# [34] = target: Neu5Ac(a2-3)Gal(b1-3)GalNAc(b1-4)[Neu5Ac(a2-8)Neu5Ac(a2-3)]Gal(b1-4)Glc
# Method in brief: as §1
# [35] = target: Neu5Ac(a2-3)Gal(b1-3)GalNAc6S
# Method in brief: as §1
# [36] = target: Neu5Ac(a2-3)Gal(b1-3)GlcNAc
# Method in brief: as §1
# [37] = target: Neu5Ac(a2-3)Gal(b1-3)GlcNAc(b1-2)Man
# Method in brief: as §1
binder,measurement,setting,value
B1,glycan array binding signal (z-score),[1],0.044
same,glycan array binding signal (z-score),[2],-0.019
same,glycan array binding signal (z-score),[3],0.154
same,glycan array binding signal (z-score),[4],0.492
same,glycan array binding signal (z-score),[5],-0.262
same,glycan array binding signal (z-score),[6],-0.434
same,glycan array binding signal (z-score),[7],-0.316
same,glycan array binding signal (z-score),[8],-0.005
same,glycan array binding signal (z-score),[9],-0.185
same,glycan array binding signal (z-score),[10],-0.264
same,glycan array binding signal (z-score),[11],-0.417
same,glycan array binding signal (z-score),[12],-0.468
same,glycan array binding signal (z-score),[13],-0.281
same,glycan array binding signal (z-score),[14],0.048
same,glycan array binding signal (z-score),[15],0.074
same,glycan array binding signal (z-score),[16],0.464
same,glycan array binding signal (z-score),[17],-0.19
same,glycan array binding signal (z-score),[18],-0.204
same,glycan array binding signal (z-score),[19],-0.563
same,glycan array binding signal (z-score),[20],-0.087
same,glycan array binding signal (z-score),[21],-0.441
same,glycan array binding signal (z-score),[22],0.003
same,glycan array binding signal (z-score),[23],0.018
same,glycan array binding signal (z-score),[24],-0.618
same,glycan array binding signal (z-score),[25],-0.053
same,glycan array binding signal (z-score),[26],-0.355
same,glycan array binding signal (z-score),[27],0.306
same,glycan array binding signal (z-score),[28],0.383
same,glycan array binding signal (z-score),[29],-0.317
same,glycan array binding signal (z-score),[30],-0.314
same,glycan array binding signal (z-score),[31],1.94
same,glycan array binding signal (z-score),[32],-0.171
same,glycan array binding signal (z-score),[33],-0.366
same,glycan array binding signal (z-score),[34],-0.26
same,glycan array binding signal (z-score),[35],-0.272
same,glycan array binding signal (z-score),[36],-0.033
same,glycan array binding signal (z-score),[37],-0.426
